Measured values: publication PMC12136788
The other results are listed elsewhere or left out.

T1: UNK ZnF1-3 (human, UniProt Q9C0B0 31-174)
T1 sequence: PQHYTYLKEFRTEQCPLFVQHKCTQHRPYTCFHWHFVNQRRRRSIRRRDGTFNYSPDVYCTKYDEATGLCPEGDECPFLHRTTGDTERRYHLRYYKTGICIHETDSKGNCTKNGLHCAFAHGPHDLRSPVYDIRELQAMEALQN

B1: chr2:48026839:48026840:+_ENSG00000116062_ENST00000540021|hu_hu|hu_hu_hu_mus_False|1_18 (ssRNA)
RNA: GGGAGUUCUACAGUCCGACGAUCAUAGUGAGCCACUAGCGUCCUAAAUCUGGAACAGUGGCGGUCAUCCGAAAACUGGCCGAUGAAAAACUUGCCCAGUGAAGUGUCCACAAAGCACACACCAUAUACACGAGUGUGGCCAGACAACAGAGGAUUGAGCAUCA
B2: chr4:25749455:25749456:-_ENSG00000091490_ENST00000264868|hu_hu|hu_hu_hu_mus_False|1_108 (ssRNA)
RNA: GGGAGUUCUACAGUCCGACGAUCGCAAGCACUAGGAUAGAAAAAUCCACAGGGGGAAAAAAUGUAAACCAAUGUACAAUGUUAUCGCCUUCCCUGUGUGUGGAGUGUUUGUCUCAAGGCUCCUUCUAGCUGCUGGACUGCUAGCAACAGAGGAUUGAGCAUCA
B3: chr1:39494447:39494448:+_ENSG00000168653_ENST00000372967|hu_mus|hu_hu_hu_mus_False|48_88 (ssRNA)
RNA: GGGAGUUCUACAGUCCGACGAUCGCACCGAGCGGCGUUCUUAUAGGGCUGUUCACCGCUUAGGAACAUAAAGUGCCGGUCCAGGCUAAGGCCGAACUUUUUCUGUAUGUCAAGGAAAGGCAUGGCUCUGCAGUGCCCUUGUCACAACAGAGGAUUGAGCAUCA
B4: chr1:185278638:185278639:-_ENSG00000116679_ENST00000392007|hu_hu|motif|central (ssRNA)
RNA: GGGAGUUCUACAGUCCGACGAUCUAAAAUUUUCAUCCUCAAACAUCAAAUAUCCAUUGGGAAUCAUUUUUCCUUAUAAAUUUGGCGGCUCUGUUGGUGGCAAAUGUAUUUCUGGGAACUCUUAAGUAAUCCAAGGACAAAGGACAACAGAGGAUUGAGCAUCA
B5: chr2:201943701:201943702:+_ENSG00000119013_ENST00000433898|hu_mus|FALSE|FALSE (ssRNA)
RNA: GGGAGUUCUACAGUCCGACGAUCAUUGCGAGCCCAUGGAUCCCUCAGCCCUCGGGCAGCAAGCUUCUUCUGCACCGUUUCUAAUGGCGUCCCUUCAAUUUUCCACUGUCUGUAAUCUGGAAGUUCCAUUUUACCAUGGCCAUGCAACAGAGGAUUGAGCAUCA
B6: 135925620_135927489_684_CDS_ENSMUSG00000039959_ENSMUST00000060311|mouse|control|control (ssRNA)
RNA: GGGAGUUCUACAGUCCGACGAUCGAUGAGCGGUGCGAGGCGGCACUGGCCAGCCGUGGUCACGGACACCGAACGGGACAUGUCCAAGGAGUUGAACACAGUCUGGAAGAGGUUCAGUUCACACUCCAGGUAAUCAAACAUCUCCAACAGAGGAUUGAGCAUCA
B7: chr10:127452298:127452299:+_ENSMUSG00000025395_ENSMUST00000026461|mus_mus|FALSE|FALSE (ssRNA)
RNA: GGGAGUUCUACAGUCCGACGAUCAAAGCUUGAGUAGCUCCGGCAGCUCCGCAGGAUCAAAUGGCUCCAUGAAGUAAAGAACUAGACCCGGACAGGACUGACACGAGAAUUGGCGGGAACAAGACAGGCCUCCAUCCCUGCGCGCAACAGAGGAUUGAGCAUCA
B8: chr19:16212804:16212805:+_ENSG00000167460_ENST00000300933|hu_mus|hu_hu_hu_mus_False|98_108 (ssRNA)
RNA: GGGAGUUCUACAGUCCGACGAUCAACAAAUAUGCAAAAGAACAUCAAUGUAACAUGGAACAGCAUUAAAGCUCAGUCAGAAGGCACAUGGGCAACAAUGAUCACCCCAGCAUUCUCGCUUGGAAUGCUUAAAGACAAUCUGUUCAACAGAGGAUUGAGCAUCA
B9: chr7:54168817:54168818:-_ENSMUSG00000014402_ENSMUST00000014546|mus_hu|FALSE|FALSE (ssRNA)
RNA: GGGAGUUCUACAGUCCGACGAUCGUUUGAGAUCUUUGUAUAGAGUAAUAACAUUGACAGUUUCACGUACAGUUAGGUCUCUGUAUUUGUACUUGGACACCAUUUUCUUGAGCUGGCUCUCCGACACCGCCAUGACGGCCGCCUCAACAGAGGAUUGAGCAUCA
B10: chr3:179287964:179287965:+_ENSG00000136518_ENST00000429709|hu_hu|hu_hu_hu_mus_True|8_108 (ssRNA)
RNA: GGGAGUUCUACAGUCCGACGAUCCUUUAGAGGUGAAAUGGCCUCCAUGUUCUCCCUGGGCACGCGGAGGGCAUUGGUGUCUAUGUAGUAGGUGGGCCCGCCCUGCUUGCCUUUGUCACCAUCAAUCUCCAUUAAUGUACUUCCCAACAGAGGAUUGAGCAUCA
B11: chr7:148679106:148679107:+_ENSMUSG00000025511_ENSMUST00000117634|mus_mus|FALSE|FALSE (ssRNA)
RNA: GGGAGUUCUACAGUCCGACGAUCCCUGCCUGGAGCACCAAGAUCAUCGUGGGCCUUGAGCAGACUGGGCCUGCCCCCAACCUAGCAACCAUGCAAGGCUGGGAACCCCAUCCUGUGUGAACACUGGAAGGUAUAUAUGGAUAUCAACAGAGGAUUGAGCAUCA
B12: 38353958_38354078_3120_CDS_ENSMUSG00000044864_ENSMUST00000156038|mouse|control|control (ssRNA)
RNA: GGGAGUUCUACAGUCCGACGAUCUAACAACUUAAUGAUCUGAGAAUGCCCGUUUUUGGCUGCCACCCUCAUGGCAGUGCGUCCAAAUUGGUCGGCAUGAUUGGGAUCAGCACCGUGUUCCAGCAAAACCUGCACUACAUCCACCAACAGAGGAUUGAGCAUCA
B13: 70208459_70208579_3005_CDS_ENSG00000131626_ENST00000253925|human|control|control (ssRNA)
RNA: GGGAGUUCUACAGUCCGACGAUCCGGGGCAGACGGGCUGGUCAGCGACAUGAUCUCCUGGAUGGCCAGCCUCAGCUUCAGCCUGUGCAGGGGGUUGCUGAUGCCAAUCUCACGCUGGAUCUCUGUGUCGGACAGGGCCGACAUCAACAGAGGAUUGAGCAUCA
B14: chr3:37053522:37053523:+_ENSG00000076242_ENST00000455445|hu_hu|FALSE|FALSE (ssRNA)
RNA: GGGAGUUCUACAGUCCGACGAUCCAAAGAUGGAGCGAAUAUUGUCCACGGUUGAGGCAUUGGGUAGUGUCCUAACAUCAGCUACUGUCUCUCCUUGUUUUUUAACUGAGAAACUAAUGCCUGCAUUGUGUACUGAAUACCUGCCAACAGAGGAUUGAGCAUCA
B15: chr4:149991449:149991450:+_ENSMUSG00000039852_ENSMUST00000105680|mus_mus|motif|central (ssRNA)
RNA: GGGAGUUCUACAGUCCGACGAUCGCGCUCGGCUGCCAGUCUGUCUGGGUAACUCAUCUCAGGCCGCAGCUGAGGACCUGCGGGUGCCAGUCUCUCCCGCUCCAAAGGGUUGAGGCCCGGGUGGAAAGAGGCAAAGGGGUGGGGCAACAGAGGAUUGAGCAUCA
B16: 6668594_6668714_779_CDS_ENSMUSG00000041272_ENSMUST00000039987|mouse|control|control (ssRNA)
RNA: GGGAGUUCUACAGUCCGACGAUCGCCGGGCUGCAUCAUGCUUGCCUGCUGUCUGAUGUCUGUAGGCUGGCCUCUCGGCCUCAUGGCUGCCAUCUGAGGAUGGGAGCUGUACUGAGCUCCUUCUGCGUUCCCAAUCUCUUGCAUCAACAGAGGAUUGAGCAUCA
B17: chr1:186330979:186330980:-_ENSG00000047410_ENST00000367478|hu_hu|FALSE|FALSE (ssRNA)
RNA: GGGAGUUCUACAGUCCGACGAUCGUACAAAUUAGAAAGUUUUAUGUGGGCAUUUAAUUCAUUGUGGAAUUUCUCUUCCAUACUGGCCUGUUGUUCCUUGGCCUCUUUUAAUUUGGUCAACAGAUCCUCCACAUGCUUUUGAAGCAACAGAGGAUUGAGCAUCA
B18: chr11:106646565:106646566:-_ENSMUSG00000020719_ENSMUST00000021062|mus_hu|motif|central (ssRNA)
RNA: GGGAGUUCUACAGUCCGACGAUCUCUGCUUCAUCAAGGACAAGGUAGGUUGUUCUUCUCAGAUUGGUUUUUCCACACUCGGAAAAGUCAAUCAGUCUUCCAGGUGUUGCAAUACAGAUUUCCACACCUCUCUCCAAAUCACGUCAACAGAGGAUUGAGCAUCA
B19: 4764818_4764938_1217_3pUTR_ENSG00000101265_ENST00000379400|human|control|control (ssRNA)
RNA: GGGAGUUCUACAGUCCGACGAUCUGUGUCUAAAUGUUUCCAUGGAAAGAAAGUGCCUAGCUUCCUGGGGGUCUUAUGGGCAAUGGCGGUUCCUGGGGUGCCCAGAUCCCCUCGUUCUCAUGGCUCAGAUUGUUGCUGGGGUCUCAACAGAGGAUUGAGCAUCA
B20: chr20:57485041:57485042:+_ENSG00000087460_ENST00000306090|hu_mus|FALSE|FALSE (ssRNA)
RNA: GGGAGUUCUACAGUCCGACGAUCGUAGUCCUCAAUCUUCGAUUUGCCAGCGAGGACUUUCUCAGCAAGCAGGUCUUGCUUGUUGAGGAAGAGAAUCACAGAGAUGGUGCGCAGCCAUCUGUUGUUCCAGAUGCUCUUGAAGAGCAACAGAGGAUUGAGCAUCA
B21: chr1:183098298:183098299:+_ENSMUSG00000062169_ENSMUST00000134115|mus_mus|FALSE|FALSE (ssRNA)
RNA: GGGAGUUCUACAGUCCGACGAUCGUCUUUAUAGACAAGGCAGCUUUCUCAGUCAGUCCUCCUCUGCAGCUUAGGCCCAACAAGACAGCCCAAAGGUGCUUAGUUCCAUGGCUUUCAGUUUAAGCUCAAACAUUCUAGACAAAACAACAGAGGAUUGAGCAUCA
B22: chr2:62099399:62099400:-_ENSG00000115484_ENST00000544079|hu_hu|motif|central (ssRNA)
RNA: GGGAGUUCUACAGUCCGACGAUCGUAGGAUUCCAUACCACUCAGUGUUCGUGAAUAUUCAGUUAAUCGUAGGGCCAACUCGGUUUCUGGAGCACCACCUCCUGCAAUAAGAGCCCUCUUCUUCACUAAACAACGAAUAACACACAACAGAGGAUUGAGCAUCA

Each binder was assayed against T1, UNK ZnF1-3 (assay: nsRBNS (natural sequence RNA bind-n-seq); RBNS binding buffer (assumed for nsRBNS): 25 mM Tris pH 7.5, 150 mM KCl, 3 mM MgCl2, 0.01% Triton X-100, 500 ug/ml BSA, 20 U/ml SUPERase-In, 4 C; UNK is unkempt and MSI1 is Musashi-1; names of the RNAs are library labels; protein concentration not given here; high values mean tight binding).
In the case of B1, the binding signal is reported as 1.24 enrichment R.
Work on B2 yielded a binding signal of 1.26 enrichment R.
B3 showed a binding signal of 0.793 enrichment R.
Work on B4 yielded a binding signal of 1.27 enrichment R.
B5 gave a binding signal of 0.731 enrichment R.
B6 showed a binding signal of 1.37 enrichment R.
For B7, the binding signal was 1.5 enrichment R.
Work on B8 yielded a binding signal of 0.859 enrichment R.
B9 showed a binding signal of 0.572 enrichment R.
B10 gave a binding signal of 0.708 enrichment R.
In the case of B11, the binding signal is reported as 0.888 enrichment R.
Work on B12 yielded a binding signal of 1.02 enrichment R.
Binder B13 has a binding signal of 0.471 enrichment R.
B14 was tested, and the binding signal was 0.499 enrichment R.
For B15, the binding signal was 1.31 enrichment R.
B16 showed a binding signal of 0.505 enrichment R.
For B17, the binding signal was 0.4 enrichment R.
For B18, the binding signal was 0.748 enrichment R.
B19 gave a binding signal of 0.86 enrichment R.
B20 was tested, and the binding signal was 0.763 enrichment R.
With B21 the binding signal was 1.21 enrichment R.
B22 gave a binding signal of 1.34 enrichment R.
